Data from the supplement of paper PMC9135407.
Where “and” joins values, the source holds several entries; their conditions need not be identical. Equal values may be shown once. Where a name gives a salt, the structure may show the parent alone. About 620 (11%) of roughly 5,800 compounds showed activity.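 The calls were made as follows: active = score above a cut-off or among the top three wells of a plate; in these data no inactive exceeds 0.85.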 The list shows a part of the results, in another mix than the full data.

System: primary human hepatic stellate cells (donor 1)
Test: scaled lipid accumulation score (0 = DMSO-like, 1 = nortriptyline-like); higher = stronger HSC inactivation (lipid re-accumulation), active = hit call of the paper
Details: 48 h
[1] = library stock concentration: 10 mM
[2] = library stock concentration: 3.33 mM
[3] = library stock concentration: 5.9 mM
[4] = library stock concentration: 2 mM
[5] = library stock concentration: 1 mM

CN1CCc2cc(O)cc3c2[C@H]1Cc1ccc(O)c(O)c1-3 [R(-)-2,10,11-Trihydroxyaporphine hybrobromide]
scaled lipid accumulation score [1]: inactive: ≤ -0.07

Cn1c(CCCC(=O)O)nc2cc(N(CCCl)CCCl)ccc21 [Bendamustine hydrochloride]
scaled lipid accumulation score [1]: inactive: 0.247

Cn1c(CCCC(=O)O)nc2cc(N(CCCl)CCCl)ccc21 [Bendamustine HCl]
scaled lipid accumulation score [2]: inactive: ≤ 0 | scaled lipid accumulation score [1]: inactive: ≤ 0

COc1ccc2c(c1O)-c1c(OC)c(OC)cc3c1[C@H](C2)N(C)CC3 [S-isocorydine (+)]
scaled lipid accumulation score [1]: inactive: ≤ 0

COc1ccc2c(c1O)-c1c(OC)c(OC)cc3c1[C@H](C2)N(C)CC3 [Isocorydine (+)]
scaled lipid accumulation score: inactive: 0.076

NC(=O)c1cc([N+](=O)[O-])cc([N+](=O)[O-])c1 [Nitromide]
scaled lipid accumulation score (library stock concentration: 9.5 mM): inactive: ≤ -0.001 | scaled lipid accumulation score [1]: inactive: ≤ 0

O=C1CC[C@@]2(O)[C@H]3Cc4ccc(O)c5c4[C@@]2(CCN3CC2CC2)[C@H]1O5 [Naltrexone hydrochloride dihydrate]
scaled lipid accumulation score: inactive: ≤ 0

O=C1CC[C@@]2(O)[C@H]3Cc4ccc(O)c5c4[C@@]2(CCN3CC2CC2)[C@H]1O5 [Naltrexone hydrochloride]
scaled lipid accumulation score [3]: inactive: 0.019 | scaled lipid accumulation score [1]: inactive: ≤ -0.045 and inactive: ≤ -0.027

O=C1CC[C@@]2(O)[C@H]3Cc4ccc(O)c5c4[C@@]2(CCN3CC2CC2)[C@H]1O5 [Naltrexone HCl]
scaled lipid accumulation score [2]: inactive: ≤ 0 | scaled lipid accumulation score [3]: inactive: ≤ -0.006 | scaled lipid accumulation score [1]: inactive: 0.025

O=C1Nc2ccc(Cl)cc2C(c2ccccc2Cl)=NC1O (stereo unspecified) [Lorazepam]
scaled lipid accumulation score [1]: inactive: ≤ 0

C[C@@H]1O[C@@H](O[C@H]2C[C@@H](O)[C@]3(CO)[C@H]4[C@H](O)C[C@]5(C)[C@@H](C6=CC(=O)OC6)CC[C@]5(O)[C@@H]4CC[C@]3(O)C2)[C@H](O)[C@H](O)[C@H]1O [Ouabain]
scaled lipid accumulation score [1]: active: 1.13

[O-][n+]1ccccc1[S-].[O-][n+]1ccccc1[S-].[Zn+2] [Pyrithione zinc]
scaled lipid accumulation score (library stock concentration: 6.3 mM): inactive: 0.435 | scaled lipid accumulation score [1]: inactive: 0.127

CO[C@H]1CC[C@@H](O[C@H]2C[C@H]([C@]3(C)CC[C@]4(C[C@H](O)[C@@H](C)[C@@H]([C@@H](C)/C=C(\C)C(=O)[C@H](C)C[C@H](C)C(=O)O)O4)O3)O[C@]3(O[C@@H]([C@H]4O[C@@](O)(CO)[C@H](C)C[C@@H]4C)C[C@@H]3C)[C@@H]2C)O[C@@H]1C [Nanchangmycin]
scaled lipid accumulation score [2]: active: 1.27 | scaled lipid accumulation score [1]: inactive: 0.663

O=C(NC(COc1ccc2[nH]c(=O)[nH]c2c1)c1ccccc1)c1cccn(Cc2ccc(F)c(F)c2)c1=O (stereo unspecified)
scaled lipid accumulation score (library stock concentration: 80 uM): inactive: ≤ 0 | scaled lipid accumulation score (library stock concentration: 400 uM): inactive: ≤ 0 | scaled lipid accumulation score [4]: inactive: ≤ 0 | scaled lipid accumulation score [1]: inactive: ≤ 0

COc1ccc2c(c[n+](C)c3c4cc5c(cc4ccc23)OCO5)c1OC.Cl [Chelerythrine chloride]
scaled lipid accumulation score [4]: active: 1.1

O[C@H]1[C@H](O)[C@@H](O)CN2CC[C@H](O)[C@H]12 [Castanospermine]
scaled lipid accumulation score [1]: inactive: ≤ 0 | scaled lipid accumulation score (library stock concentration: 26.4 mM): inactive: 0.125

c1cc2cc(N3CCNCC3)ccc2cn1 [6-piperazin-1-yl-Isoquinoline (hydrochloride)]
scaled lipid accumulation score [5]: inactive: ≤ 0

C[C@]12CCC3C(CC[C@]4(O)C[C@@H](O)CC[C@]34C=O)[C@@]1(O)CCC2C1=CC(=O)OC1 (stereo partly specified) [Strophanthidin]
scaled lipid accumulation score [1]: active: 1.12

COc1cc(C(=O)OC2CC3CCC(C2)N3C)ccc1O (stereo unspecified) [Fillalbin]
scaled lipid accumulation score: inactive: ≤ 0

NCC(CC(=O)O)c1ccc(Cl)cc1 (racemic) [Baclofen (R,S)]
scaled lipid accumulation score: inactive: ≤ 0

N[C@@H]1C[C@H]1c1ccccc1 [Tranylcypromine (2-PCPA) HCl]
scaled lipid accumulation score [2]: inactive: ≤ 0 | scaled lipid accumulation score [1]: inactive: ≤ -0.001

N[C@@H]1C[C@H]1c1ccccc1 [Tranylcypromine hydrochloride]
scaled lipid accumulation score: inactive: 0.103 | scaled lipid accumulation score [1]: inactive: ≤ 0 and inactive: 0.046

CN[C@@H](C)[C@@H](O)c1ccccc1 [Pseudoephedrine hydrochloride]
scaled lipid accumulation score (library stock concentration: 9.9 mM): inactive: ≤ 0 | scaled lipid accumulation score [1]: inactive: ≤ 0

C[C@@H]1O[C@@H](O[C@H]2CC[C@]3(C=O)[C@H]4CC[C@]5(C)[C@@H](C6=CC(=O)OC6)CC[C@]5(O)[C@@H]4CC[C@]3(O)C2)[C@H](O)[C@H](O)[C@H]1O [Convallatoxin]
scaled lipid accumulation score [1]: inactive: 0.656

CCCCC/C=C\C/C=C\CCCCCCCC(=O)NCCO [Linoleoyl Ethanolamide]
scaled lipid accumulation score [5]: inactive: 0.001

O=C(O)C1=CCCN(CCOC(c2ccc(C(F)(F)F)cc2)c2ccc(C(F)(F)F)cc2)C1 [CI 966 hydrochloride]
scaled lipid accumulation score [1]: inactive: ≤ -0.006

CN1[C@@H]2C[C@@H](OC(=O)[C@H](CO)c3ccccc3)C[C@H]1[C@@H]1O[C@@H]12 [Scopolamine HBr]
scaled lipid accumulation score [2]: inactive: ≤ 0 | scaled lipid accumulation score (library stock concentration: 6.6 mM): inactive: ≤ 0 | scaled lipid accumulation score [1]: inactive: ≤ 0

CN1[C@@H]2C[C@@H](OC(=O)[C@H](CO)c3ccccc3)C[C@H]1[C@@H]1O[C@@H]12 [Scopolamine hydrochloride]
scaled lipid accumulation score: inactive: ≤ 0

CN1[C@@H]2C[C@@H](OC(=O)[C@H](CO)c3ccccc3)C[C@H]1[C@@H]1O[C@@H]12 [Scopolamine hydrobromide]
scaled lipid accumulation score (library stock concentration: 5.2 mM): inactive: ≤ 0 | scaled lipid accumulation score [1]: inactive: ≤ 0 and inactive: 0.04

CN1[C@@H]2C[C@@H](OC(=O)[C@H](CO)c3ccccc3)C[C@H]1[C@@H]1O[C@@H]12 [(-)-Scopolamine hydrobromide]
scaled lipid accumulation score [1]: inactive: ≤ 0

Cc1sc2ccccc2c1CC1=NCCN1 [Benazoline oxalate]
scaled lipid accumulation score [1]: inactive: 0.663

CC[C@@H]1C=CC=CC[C@H](C)[C@@H](O)[C@@H](C)C(=O)[C@H](C)[C@@H](O)[C@H](C)C(=O)[C@H](C)[C@@H](O)[C@H](C)C=CC(=O)O[C@H]2[C@@H](C)[C@@H](CC1)O[C@@]1(CC[C@@H](C)[C@@H](C[C@H](C)O)O1)[C@@H]2C
scaled lipid accumulation score [1]: inactive: ≤ 0

CN(C)CCc1ccc(O)cc1 [Hordenine]
scaled lipid accumulation score [2]: inactive: ≤ 0 | scaled lipid accumulation score [1]: inactive: ≤ 0
